# According to the RNAGym collection of RNA variant scans (doi:10.1093/nar/gkz1192):
# Read counts are not given, so values of variants with three or more changes are uncertain.
# B1: CPEB3 Ribozyme (parent)
# chain: UAACAGGGGGCCACAGCAGAAGCGUUCACGUCGCAGCCCCUGUCAGAUUCUGGUGAAUCUGCGAAUUCUGCUGUAUAUCUC
# Variants of: B1
# Assay: self-cleavage, relative activity (ratio to wild type); higher = more cleavage; in vitro, sequencing
# Outline: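 Libraries of CPEB3 self-cleaving ribozyme mutants came from rounds of error-prone PCR and carried barcodes, which DNA sequencing matched to variants. In vitro transcription used T7 RNA polymerase at 37°C for 5 hours, with a further 15 min in DNase I before EDTA stopped the reaction; the ribozymes cleaved during both steps. The RNA was reverse transcribed with template switching and sequenced on Illumina. Relative activity is the cleaved/total read fraction of a variant divided by that of the unmutated ribozyme, averaged over three batches with at least 5 reads.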
row,Variant,self-cleavage
1,A3G A15U C38U A47G,0.68
2,A3G A15U A45G,0.26
3,A3G A5U C40U U51C U54G C68A,0.18
4,A3G A18G C71A,0.56
5,A3G A13G U31A U54C G63A,0.44
6,A3G A5C U26C U48A G52U U78A,0.8
7,A3G A18G U43C U80C,0.2
8,A3G A15G U41C U49A U58A,0.24
9,A3G A5G G9A A21U A35G U49C U78A,0.34
10,A3G A18G A20U U41A,0.09
11,A3G A15C A47G C50U U54C,0.24
12,A3G A5G G9A C39A,0.14
13,A3G A5G U49C U72A,0.28
14,A3G A13C U43C A47G U49A G70A,0.22
15,A3G A5G C12U A15G A20U,0.2
16,A3G A15G G19C U76A,0.45
17,A3G A13U U26C C32U G53A U80C,0.11
18,A3G A5U A15G A20G A21U G22C U58C,0.74
19,A3G A15G C62U U69A,0.23
20,A3G A13C A15U C32U A35G A45G U80C,0.18
21,A3G A13G A35U U49C A57U,1
22,A3G A13U A15G U48C,0.64
23,A3G A13G A15U U25G U41C U43A A47U,0.08
24,A3G A15U U25A U58C G73A,0.5

row,Variant,self-cleavage
1,A3G A5C U26C U49C U58C,0.33
2,A3G A15U A18U A28G C68A A75C,0.09
3,A3G A5C U54C A77U,1.09
4,A3G A13G A15G C17A A64G C71G G73A,0.06
5,A3G A5U U25A C44A U54C C68G,0.2
6,A3G A15G U60A U72C,1.03
7,A3G A5U G33A,0.58
8,A3C U72A U78C,1.14
9,A3G A18G A21G C32A,0.6
10,A3G A5C G33U,0.38
11,A3G A5G A35C U69C U72C,0.1
12,A3G A15G U69C,0.5
13,A3G A15G U26C,0.72
14,A3G A13U A15G U26A U31A,0.55
15,A3G A5U G7A A21U U25G U31A U78C,0.21
16,A3G A15U A64U,0.17
17,A3G A15U U41A U67G U76A,0.08
18,A3G A13U U31A,0.53
19,A3G A13G U72C,0.78
20,A3G A15G U26C U43C,0.24
21,A3G A15U C39A C40A U51C,0.1
22,A3G A15G G16C A35G C81A,0.66
23,A3G A5U A75G,0.93
24,A3G A13G A20G U25C G63U,0.75

row,Variant,self-cleavage
1,A3G A15U A77U U80A,0.87
2,A3G A15G A20G U26C A77G,0.15
3,A3G A5C A15G G46A A47G A56G U78C,0.55
4,A3G A13G A28G U54G A75U A77G,0.52
5,A3G A13G A15U U26A C34U,0.34
6,A3G A15G G36C U67G,0.13
7,A3G A5G C40U A45G U49A A64U,0.11
8,A3G A5G U51C U60C,0.25
9,A3G A13U A18C C39U C40U U60A C71U,0.02
10,A3G A18U A20G U49C U76C,0.18
11,A3G A15G A21G A65G U67C U69A,0.25
12,A3G A15G U31C C40U A47G U51C A64U,0.09
13,A3G A15U C62G,0.14
14,A3G A18G A20U G30A A47G C62U,0.14
15,A3C U51C A64G,1.56
16,A3G A5U A56G A57G,0.43
17,A3G A18G G36A,0.47
18,A3G A5U A28U U41C U66C,0.36
19,A3G A13G U41C A57G A65G U78C,0.4
20,A3G A15U C34U G46C U67C U72C,0.07
21,A3G A15C G36A U43C A56G C62U,0.11
22,A3G A15G A20U C32U U78C,0.09
23,A3G A13G U25C U31C G33A U54C C62U,0.29
24,A3G A18U A47G U60C,0.24

row,Variant,self-cleavage
1,A3G A13U A21U,0.63
2,A3G A13G A15U A20U U49C A64U,0.33
3,A3G A15G U66C U69C A77G,0.28
4,A3G A18U A28G G36A U80C,0.09
5,A3G A5U U43C A56G A57G,0.35
6,A3G A18G U25C A28G,0.43
7,A3G A5U G7U U69C U74C,0.1
8,A3G A5G A15U C50U A77G,0.57
9,A3G A18U A21G A35U G42U G63A,0.32
10,A3G A13U G24A U43A A45G A64U,0.08
11,A3C U60C U76C A77U,0.73
12,A3G A15G C38A U43A A56G,0.23
13,A3G A13G A18G C81U,0.54
14,A3G A15U A75C,0.71
15,A3G A5G A15U,0.85
16,A3G A5U U49C U58C U67C U78A,0.13
17,A3G A13G A15G U25C U26C G33A U80C,0.12
18,A3G A13G A15G A57G U74A,0.14
19,A3G A13G U78A,1.03
20,A3G A5G A13U A47G U60A A64G,0.23
21,A3G A5G U31C A57G U72A,0.2
22,A3C U48C U69C U74C U80C,0.59
23,A3G A5U A13G U41A U51A,0.17
24,A3G A13U G19U A28C G33U A56G,0.12

row,Variant,self-cleavage
1,A3G A18G G24A,0.39
2,A3G A5G U69A,0.55
3,A3G A15U U67G U72G U74C,0.15
4,A3G A5U C62U A65G,0.3
5,A3G A5U A18U G70C,0.21
6,A3G A13U A28U U48C G61A U66G,0.25
7,A3G A13C C23U,0.15
8,A3G A15G G30U U41C C50A A57C U72A,0.01
9,A3G A15U A18U U76A,0.48
10,A3G A13G A15C U25C C29U C40A U80C,0.12
11,A3G A15G A65G U67C,0.22
12,A3G A15G C29G C38A U60A A64U,0.12
13,A3G A13C A15G A18G,0.85
14,A3G A13G A15G U54C A77U,0.83
15,A3G A5G U43A,0.64
16,A3G A15G U26C U31C A35U A45U U60C,0.33
17,A3G A13U A15G C34U U58C U76G U80C,0.12
18,A3G A15G U31C,0.41
19,A3G A18G U31A A35G,0.6
20,A3G A15G G22U,0.41
21,A3G A18G G33U,0.42
22,A3G A15G A35G U58C,0.56
23,A3G A5G G6A A35U U69A,0.13
24,A3G A5G A35G A47G,1.09

row,Variant,self-cleavage
1,A3G A5U A47C G55A U72C A75U U80C,0.31
2,A3G A13C U60A A64G A65U,0.3
3,A3G A5U G9C U41C C79U,0.13
4,A3G A5G U72A,0.56
5,A3G A5G U72C,0.96
6,A3G A5C A28G C38U,0.53
7,A3G A5G G6U A21U U51C U54A,0.13
8,A3G A18U A21U,0.4
9,A3G A15G A21G U43G A64G,0.46
10,A3G A15U U26C U67C U72C U80C,0.11
11,A3G A13U U26C A64G,0.56
12,A3G A18U A75G,0.42
13,A3G A15C U60C A64G A65U U69A,0.1
14,A3G A18G A28C,0.23
15,A3G A13U G46U U80G,0.6
16,A3G A13G U31C U41C A64G A75U,0.62
17,A3G A13U A57G U60A,0.43
18,A3G A5G A15U U41A U72C,0.37
19,A3G A13U A35U U49C U72C U76A U78C,0.3
20,A3G A5G U26A U41C U67A,0.14
21,A3G A15G U25A U48C U67C U72C,0.12
22,A3G A18U A77C,0.41
23,A3G A15U U31C U72C,0.66
24,A3G A13U G16C G24C G30U A47G,0.45

row,Variant,self-cleavage
1,A3G A15G A20G U26A A45U A64C,0.08
2,A3G A13G A35G,0.91
3,A3G A13G U26A A28G A65G,0.21
4,A3G A5G C23U A28G U60C U80C,0.4
5,A3G A18G A28G U48C,0.64
6,A3G A18G A35U U69C,0.73
7,A3G A15G U25C A28G A35U U60C U74A,0.58
8,A3G A5G A13U A28G U66C A75U,0.17
9,A3G A15U A20G C23U A28G A47G U69C,0.29
10,A3G A13G A18U U26C A56G U66C,0
11,A3G A13G C23U C62A U69A U78C,0.13
12,A3G A18U A35G C39U U49C C68A,0.71
13,A3G A5G A13G G19A A28G U80C,0.14
14,A3G A15U C59A U78C,0.2
15,A3G A5G C29G A45U,0.14
16,A3C U48C U49A U66C,0.21
17,A3G A5U A15U,1.04
18,A3G A13U A20G A65U U72A A77G,0.16
19,A3G A18G C29A G33A A65G,0.22
20,A3G A15G U58A U72C U76A,0.67
21,A3G A13G C23U U72A,0.13
22,A3G A13G C32A,0.55
23,A3G A5U U25C U26C U41A,0.44
